From the supplement of paper PMC3334620
Whole data set: some 33,000 sequences, median “E-score (-0.5 to 0.5)” near -0.043, cut for the highest 2% near 0.37. Some of the results follow.

target: T1, Upc2 (UniProt Q12151); test: PBM E-score (8-mer binding enrichment) (E-score (-0.5 to 0.5)); higher = stronger / more preferred TF binding; most listed sequences are background and not binding sites; conditions: protein concentration: 200 nM; construct: GST-full length
T1 sequence: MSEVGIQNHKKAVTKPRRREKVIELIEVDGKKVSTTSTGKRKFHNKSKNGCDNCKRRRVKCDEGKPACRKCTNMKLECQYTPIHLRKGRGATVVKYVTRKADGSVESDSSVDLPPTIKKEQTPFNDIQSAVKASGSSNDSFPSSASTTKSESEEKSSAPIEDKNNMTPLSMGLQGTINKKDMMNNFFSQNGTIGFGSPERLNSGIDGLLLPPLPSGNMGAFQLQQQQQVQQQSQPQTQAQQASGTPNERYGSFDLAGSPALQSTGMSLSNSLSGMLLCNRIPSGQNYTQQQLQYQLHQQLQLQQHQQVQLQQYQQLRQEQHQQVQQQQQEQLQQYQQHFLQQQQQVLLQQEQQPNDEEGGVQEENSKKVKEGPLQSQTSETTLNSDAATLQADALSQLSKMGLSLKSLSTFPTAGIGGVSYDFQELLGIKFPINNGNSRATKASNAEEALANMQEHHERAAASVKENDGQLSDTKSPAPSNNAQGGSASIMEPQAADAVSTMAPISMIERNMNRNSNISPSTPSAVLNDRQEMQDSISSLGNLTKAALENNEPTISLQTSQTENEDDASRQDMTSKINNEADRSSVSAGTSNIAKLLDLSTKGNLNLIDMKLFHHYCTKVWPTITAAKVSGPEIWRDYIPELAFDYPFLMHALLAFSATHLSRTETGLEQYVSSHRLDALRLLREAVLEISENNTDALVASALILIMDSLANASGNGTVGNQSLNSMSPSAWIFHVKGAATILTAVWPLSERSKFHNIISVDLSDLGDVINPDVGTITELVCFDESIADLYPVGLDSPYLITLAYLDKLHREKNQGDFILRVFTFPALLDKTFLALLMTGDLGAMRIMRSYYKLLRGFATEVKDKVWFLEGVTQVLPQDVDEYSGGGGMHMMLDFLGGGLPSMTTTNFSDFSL
Summary of the method: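 Bound GST-tagged yeast transcription factors, applied at about 100-200 nM to double-stranded universal all-10-mer Agilent arrays, were detected with fluorescent anti-GST. Scans were normalised with masliner. A modified Wilcoxon-Mann-Whitney statistic, the E-score, was assigned to each ungapped eight-base word pooled with its reverse complement by the Universal PBM Analysis Suite.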

Going from AGAGCTTG to GTACGATA, the “PBM E-score” value rises from -0.0473 to 0.445.

Going from AACGTTTA to GCCACTCC, the “PBM E-score” value falls from 0.359 to 0.00823.

Going from CCCGTCGA to GATAAAAA, the “PBM E-score” value rises from -0.024 to -0.0128.

Going from AAAGTGTC to ACTATGGA, the “PBM E-score” value falls from -0.00791 to -0.0797.

Going from AGACTTTG to AGGGGGGG, the “PBM E-score” value falls from -0.0679 to -0.318.

Going from ACTGCTAG to AATTTTGA, the “PBM E-score” value rises from -0.233 to 0.111.

First: GATCAGTA
Second: CCAAGGAA
The “PBM E-score” value of the first is higher: 0.14 for the first, -0.158 for the second.

Compared with CGAATGAA, CTTTTGCC is lower in “PBM E-score” value: 0.117 for the first, -0.115 for the second.

Compared with GGACAGCA, ATTTCCTG is higher in “PBM E-score” value: -0.173 for the first, -0.0945 for the second.

First: GAGACCCC
Second: ATTTTTTC
The “PBM E-score” value of the first is lower: -0.187 for the first, 0.0622 for the second.

Compared with ATATACTG, AGGCAAGC is lower in “PBM E-score” value: 0.0777 for the first, -0.129 for the second.

Compared with CCAAGTAG, CCTGGTCG is higher in “PBM E-score” value: -0.168 for the first, 0.101 for the second.

First: CGAGATTC
Second: CGTCCCTA
The “PBM E-score” value of the first is higher: 0.177 for the first, -0.125 for the second.

Going from CTGGCTGC to CATGATAC, the “PBM E-score” value rises from -0.15 to 0.147.

Going from GACACGCA to ACTAAAAG, the “PBM E-score” value rises from 0.0514 to 0.0931.

First: GCTAGATA
Second: GCAGAAAC
The “PBM E-score” value of the first is lower: -0.0359 for the first, 0.103 for the second.

Going from AGATCGCG to AAGTTACG, the “PBM E-score” value rises from 0.0663 to 0.326.

Going from CGAGAACC to CCCCTAGG, the “PBM E-score” value falls from 0.189 to -0.322.

First: GAGAGCAC
Second: GACAGTAC
The “PBM E-score” value of the first is lower: 0.0218 for the first, 0.0726 for the second.

Compared with GTATGGTA, TATAGTCA is lower in “PBM E-score” value: 0.226 for the first, 0.176 for the second.

Going from CCAGACTC to AAGCTGAG, the “PBM E-score” value falls from -0.0319 to -0.268.

Going from CTAAGAGA to TCAAAGGA, the “PBM E-score” value falls from -0.0721 to -0.248.

Compared with CGCAATGC, ACCACAGT is higher in “PBM E-score” value: -0.132 for the first, -0.0661 for the second.

Compared with ATGTTATG, GAATCTAC is higher in “PBM E-score” value: -0.0281 for the first, 0.00921 for the second.

First: CTTAGTTC
Second: ACCGTTCT
The “PBM E-score” value of the first is higher: 0.133 for the first, 0.0432 for the second.

Compared with AAGACGGC, GAGTGCAA is higher in “PBM E-score” value: -0.199 for the first, 0.145 for the second.

Compared with ATTGTAAC, CCAGGACG is lower in “PBM E-score” value: -0.0177 for the first, -0.153 for the second.

Going from GCAGGTCC to CCACGAAC, the “PBM E-score” value rises from -0.202 to 0.155.

Compared with ACATGACG, GTAGATAC is higher in “PBM E-score” value: -0.0379 for the first, 0.0397 for the second.

Going from CACCACTA to CAGGACCC, the “PBM E-score” value falls from 0.126 to -0.349.

Compared with CGCAGTGA, ACAGCATC is lower in “PBM E-score” value: 0.0212 for the first, -0.0918 for the second.

First: AATGAGGA
Second: CTTGCAAG
The “PBM E-score” value of the first is lower: -0.135 for the first, 0.0207 for the second.

First: ATAGCGTA
Second: ATATGTTA
The “PBM E-score” value of the first is higher: 0.227 for the first, -0.0719 for the second.

Compared with TACCCTGA, CTGACGAC is higher in “PBM E-score” value: -0.0732 for the first, -0.0518 for the second.

Compared with ATGGGAAG, AACTTGTG is higher in “PBM E-score” value: -0.251 for the first, 0.0183 for the second.

Going from AGAATCTA to CGTCCAAA, the “PBM E-score” value rises from -0.0406 to 0.0867.

Going from AAACGATA to ATTTTAGG, the “PBM E-score” value falls from 0.459 to -0.0263.

Compared with ATTAATTG, ACGTTCCC is higher in “PBM E-score” value: -0.0275 for the first, 0.0935 for the second.

Going from CCAATAGC to CTGGACAG, the “PBM E-score” value rises from -0.22 to -0.163.

Compared with CACACCTC, AGCAAGAC is higher in “PBM E-score” value: -0.19 for the first, -0.151 for the second.

Going from CGGAGGAC to AACGGGTA, the “PBM E-score” value rises from -0.238 to 0.261.

Going from AAAAGTAG to CACCGACA, the “PBM E-score” value rises from -0.0874 to -0.0632.

Compared with AGAGTGAG, ACTTGTCA is lower in “PBM E-score” value: -0.0472 for the first, -0.235 for the second.

Going from AGACGCGA to CTTGCGTA, the “PBM E-score” value rises from 0.054 to 0.218.

Going from ACATCCCG to ACACGCCG, the “PBM E-score” value rises from -0.0469 to 0.107.

Compared with GTGCCCGA, AAGTACTG is higher in “PBM E-score” value: -0.238 for the first, 0.0415 for the second.

Going from AAACACAA to AGTGCAAT, the “PBM E-score” value falls from -0.0487 to -0.0802.
